The values that follow come from the RNAGym collection of RNA variant scans (doi:10.7554/elife.90254).

The source gives no read counts; variants with many changes may rest on few reads.

B1: LINE1-full (parent)
chain: UACGUAGGUGGUUUUCCCCUGAUAGUGCUAAGGGGGCCUGGAAGUUUGGACUGGGCAGAGCUCAACACAGCGUGGCAAAGUGGCUGUGGCUAGACUGCCUCUCUGGAUUCCUCGUCACUCAGCAGGGCAUCUCUGAGAGAAAUGCC

Variants of B1 are the subject of the data set. Put plainly: self-cleavage, relative activity (ratio to wild type); higher = more cleavage; in vitro, sequencing; the parent is a self-cleaving ribozyme.
With U5C U13C A79G A129C A141G, the self-cleavage was 0.

Consider A6G U39C A69G U109C, for which the self-cleavage came to 1.31. To U5C U12C A65G U112C belongs 0. To A6U U12C U52A belongs 1.09.

Take A6G U12C A64G A78G C98U: the self-cleavage was 0.33. To A6C A67G A140G belongs 1.38; to A6G A57G U108C A124G A140G, 0; to A6U U23C U112A, 2.3. Take U5C U47C U115C: the self-cleavage is 0. For the variant U5C A79G U102C, the self-cleavage is 0. To A6U U12G U115C belongs 1.02. To G7A G35A A43G A79G U115C belongs 1.04. To U5C U15C U20A belongs 1.2; to U5C G10A U12G A57G A67G A142G, 0.84; to A6U U73A A129U, 1.43. With U5C U46C A64G A79G A141G, the self-cleavage was 0.

Consider A6U A24U A129G, for which the self-cleavage turned out to be 0.7. To U5C U29C U109A belongs 1.23; to U5C U62C A78G, 0.37.

In the case of U5C A59G C133U, the self-cleavage was 0.38. To U5C U13C U26G belongs 0.85. To A6G U47C G74A belongs 0.71; to U5C U20C A22U A129G, 0; to G7A U15C A65G, 0.06.

On to U5C U52C G82A, for which the self-cleavage amounted to 1.21. To U5C C98U U119C A129U C131U belongs 0.59; to A6G U45A U62A, 0.12; to A6U U29C U46A C113U, 1.25. To U5C A78G U115A belongs 0; to U5C U13C A129G C145G, 0.75.

In the case of U5C U47C A138G, the self-cleavage came to 0.51.

On to U5C U45C U134C, for which the self-cleavage turned out to be 0.51. To G7A A77G U134C belongs 1.52; to A6G G82A A107G, 1.53; to A6G G34U U73A, 0.94. A6U A57G A92U: the self-cleavage turned out to be 0.

With U5C U81A U108C, the self-cleavage turned out to be 2.67.

For the variant A6U G33U U91C, the self-cleavage was 1.1. To A6U G32A U39C belongs 1.06; to A6G U9C U15G U85G G93A C110U, 0.44; to G7A U14C C90A U96G A138G, 0.1. To U5C U112C A136G belongs 0.77; to U5C U13C G70A A124G, 0. In the case of U5C U20C U104C U143C, the self-cleavage amounted to 0.48.

On to G7A U9G U132C, for which the self-cleavage came to 0.82. Turning to U5C A50U U73A U85C A140U, the self-cleavage is 0. To U5C A30G G127C belongs 1.64; to U5G A43U U52C A78G, 1.38. To U5C A92G A117U belongs 0.1. To A6G U20C A22U U132C A141U belongs 0.72.

U5C U108C A121U: the self-cleavage amounted to 0.92. To A6G U109C A142G belongs 0.66; to U5C U12C U96C A136G, 0.29. Regarding A6G A69G U85C U96A, the self-cleavage is 0.28.

With A6G A43G G72U, the self-cleavage came out at 0.76. To U5C A30G G88C U102C belongs 0.25; to U5C A31U U115A A136U A141G, 1.19. To A6U U20A U134C belongs 0.87; to U5C U46A A117U, 1.01; to U5C G33A C133G A140G, 1.15. To G7A G88A U119C belongs 0.06.

A6U C19U A78G: the self-cleavage came out at 1.55. To A6U G25C U26A C37G U46G U109C belongs 0.99; to A6G A78G G114A, 0.5. As for A6G U73C U119C, the self-cleavage is 0.

With A6G U45C U46C C95U, the self-cleavage is 0. To U5C U87A U115C belongs 0.27.

For the variant U5C U13C G40A, the self-cleavage was determined as 0.93. To U5C A69G U115C belongs 1.31; to U5C U73C A78U, 1.51; to A6G G36C U62C U81A, 0.09. To A6U U13C U47C belongs 1.21; to A6G U81A A129G, 1.45. Regarding U5C A121G A142G, the self-cleavage came out at 1.23. To A6G U20C U39C belongs 0; to A6G U115C U130C, 0. To A6U G34A A92G U102C A140G belongs 0.2. Take G7A C68A U104A: the self-cleavage is 0.05. In the case of U5C A31U A77G C116A, the self-cleavage worked out at 2.02. To U5C U13C A79G belongs 0.51. To A6C U45C A121U belongs 1.01; to A6G U13G C84G U87G C128U, 0.24. U5C U13C A43G G54A: the self-cleavage was 0.97. To G7A A59G G60A U91C belongs 0.05.

Take A6G U13C A140G: the self-cleavage is 1.01. To A6U U9C U14C U45C A69G U81A U109A U119A belongs 1.08. A6U U14C C19U A67G G122A A129G A141G: the self-cleavage came out at 1.57. To A6G U15C U26C G80A U134A belongs 1.02; to U5C G44A A57U U62C U96C, 0; to U5C U14C A94U U109C, 0.86. To A6G A22G U130C belongs 1.12; to A6G G25A A140U, 0.96; to A6U U62C A136G, 0. Turning to U5C U100A A107G, the self-cleavage is 0. To U5C A94U A117U belongs 0.14; to U5C A67G U96A, 0.

With A6G U15C U85C, the self-cleavage was 0.5. To U5C U26A U47A U62A belongs 0.23; to G7A G44A U130C, 1.13; to A6G U14C A64G, 0.96. To A6U A43G G49A C68U A69G A124G belongs 0.11; to G7A A64G A69U A124G, 0; to A6C U130C A136G, 0.96.

In the case of A6U A77G A136G, the self-cleavage was 1.63. To U5C G8U G34U C123U belongs 1.64; to A6G U20C A67G A107G A142G, 1.84. To A6G U112C A141G belongs 1.33; to A6G A24G A59G A79G U104A, 0. To A6G A42G A67G A79G belongs 0.61; to A6G U45C G58U, 0.22; to A6G U13C A67G U119C G125U, 0.28. Regarding A6U U14C G53A U62G A129U, the self-cleavage came to 0.1. To A6G U20C A57G G97U belongs 0.42. To A6G A22G U119C belongs 1.38; to U5C U47C A107G C123U U130C A136U, 1.34. To A6U U26C U102A G127C belongs 0.44. Turning to U5C U20A U39C, the self-cleavage came out at 0.73. To A6G U13C G106A belongs 0.44; to A6G A129G U143C, 1.21. To A6G U52A A136U belongs 1.55; to G7A A59G C76U, 0.09; to A6U U14A U109C, 0.76.

In the case of U5C U12C U81A U85C U108C, the self-cleavage came to 0.84.

As to U5C U96A U109C, the self-cleavage is 0. To U5C C37U C98G belongs 0.12; to A6G U39C U130C, 0.77. To A6G U15C A43G G93A belongs 0.51; to U5C U13C U20A U46C A77U A124U G144A, 0.95. For the variant U5C U45C U115C, the self-cleavage came to 1.02. To U5C A94G U96C G144A belongs 0; to U5C G35A U96C, 0.28. To U5C A43G A92G belongs 0; to U5C U85A A94G, 0.37. To A6G A65G C90U A129U belongs 0.06. With A6G U23C A24G U143C, the self-cleavage was found to be 0.

Consider A6G A67U U108C A129G A141G, for which the self-cleavage came out at 0.54. To U5C U39A U134C belongs 1.1; to A6G A43G U108A C131U, 0.66; to U5C G36U U46A U85C A92G, 0.09.

With U5C A43G A64U U81A, the self-cleavage stood at 1.15. To U5C A43G C101U belongs 1.4. To U5C U108C U109A belongs 1.15. To U5C U13C A64U A69U A121G U134C belongs 0.43.

As to U5C A67G A107G A136C, the self-cleavage was 0. For the variant U5C U85A A136G A141G, the self-cleavage is 0.12.

Take U5G C38U A43G U91A U96C U132C: the self-cleavage was found to be 0.

Regarding A6G U109C A140U, the self-cleavage worked out at 0.44. Consider U5C U45C A94U, for which the self-cleavage turned out to be 0.79. Take A6G U104C G126A: the self-cleavage is 1.07. To U5C C37U A79G belongs 0.93; to A6U U12G U13C A67G U73A, 0; to U5C A69U A79G, 0.06. A6G G72A A121U G135A: the self-cleavage was determined as 0.89. To A6G A59G A92G belongs 0.38; to A6G U12A C56U U100C, 0.17.

Regarding A6U G72A U91A C95G, the self-cleavage turned out to be 0.04. Regarding U5C U134C A142G, the self-cleavage was found to be 0.88. To A6G U14C U96C belongs 0. To A6G U14C U96A belongs 0.07; to U5C U12G U62A A142G, 0.12.

On to U5C U115A A138U, for which the self-cleavage worked out at 0.93. In the case of A6U U87C A142G, the self-cleavage is 0. To A6G U26A U73G A129G belongs 0.2; to A6U A22U C71A, 0.3.

For A6U U13C A69G U130A, the self-cleavage is 0.42. To U5C U13C U14C C111U U115C C123A A141G belongs 0.8. To U5C U15C A64G C84A U85C U87C C131A A138G belongs 0.
